From PubChem BioAssay AID1745853 (National Center for Advancing Translational Sciences (NCATS), 2022) come the findings set out here.

What all share (test): Primary Screen for Target Class Profiling of Small Molecule Inhibitors of Methyltransferases
In assay [1] the target is Glycine N-methyltransferase (Homo sapiens) (UniProt Q14749). To be noted: purified enzyme, MTase-Glo SAH luminescence; measured here: GNMT inhibition; at 40 µM; stronger effect = lower value. In outline: (§1)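 Each enzyme was reacted with SAM and its substrate, with compounds tested once at 40 uM; SAH formed was read by MTase-Glo luminescence.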
In assay [2] the target is Guanidinoacetate N-methyltransferase (Homo sapiens) (UniProt Q14353). To be noted: purified enzyme, MTase-Glo SAH luminescence; measured here: GAMT inhibition; at 40 µM; stronger effect = lower value. The procedure, abridged:
as §1

Assay [3] has as its target Histamine N-methyltransferase (Homo sapiens) (UniProt P50135). The note with it: purified enzyme, MTase-Glo SAH luminescence; measured here: HNMT inhibition; at 40 µM; stronger effect = lower value. The procedure, abridged:
as §1

Assay [4] addresses Nicotinamide N-methyltransferase (Homo sapiens) (UniProt P40261). The note with it: purified enzyme, MTase-Glo SAH luminescence; measured here: NNMT inhibition; at 40 µM; stronger effect = lower value. The procedure, abridged: as §1
Assay [5] concerns the target Phenylethanolamine N-methyltransferase (Homo sapiens) (UniProt P11086). The note with it: purified enzyme, MTase-Glo SAH luminescence; measured here: PNMT inhibition; at 40 µM; stronger effect = lower value. The procedure, abridged: as §1

The structures appear in SMILES notation. This is one part of the list. Shown are side measurements of this screen, not its main read-out; they come without a call.
% is set by controls: 0 for no effect and ±100 for the full control effect.

For the compound `COC(=O)C1=C(C)NC(C)=C(C(=O)OCCN(C)Cc2ccccc2)C1c1cccc([N+](=O)[O-])c1` (configuration not stated), the activity change, negative = inhibition in assay [1] was 0.476%; in assay [2], 14.2%; in assay [3], 5.25%; in assay [4], -6.01%; in assay [5], -0.219%.

Regarding `CC(C)(C)C(=O)N1CC[C@@H](CC(=O)O)[C@@H](CCN2CCC[C@H]2C(N)=O)C1`, the activity change, negative = inhibition in assay [1] was -1.99%; in assay [2] it was -4.31%; in assay [3], -1.51%; in assay [4], -2.58%; in assay [5], -5.04%.

On to `Oc1ccc(NCCN2CCCC2)cc1`, for which the activity change, negative = inhibition in assay [1] was -77.4%; in assay [2] it was -65.3%; in assay [3] it was -43.4%; in assay [4] it was -26.7%; in assay [5], -68.4%.

For the compound `CN1C(=O)c2cc(C(=O)NCCCc3ccccc3)nn2CC1(C)C(=O)NC1CCCCC1` (configuration not stated), the activity change, negative = inhibition in assay [1] was 1.67%; in assay [2], 0%; in assay [3] it was 5.45%; in assay [4] it was 5.79%; in assay [5] it was 2.23%.

On to `CCOC(=O)c1cc2n(n1)CC(C)(C(=O)NCc1ccccc1OC)N(c1cccc(F)c1)C2=O` (configuration not stated), for which the activity change, negative = inhibition in assay [1] worked out at 8.32%; in assay [2], 0.064%; in assay [3], 11.7%; in assay [4], 8.08%; in assay [5], 8.42%.

For the compound `COCCNC(=O)C1CC(c2ccccc2)CN(C(=O)NCc2ccccc2)C1` (configuration not stated), the activity change, negative = inhibition in assay [1] is 1.52%; in assay [2], 1.31%; in assay [3] it was 3.64%; in assay [4] it was -3.51%; in assay [5] it was 2.06%.

`CC(=O)c1ccc(O[C@@H]2OC[C@@H](O)[C@H](O)[C@H]2O[C@]2(CO)O[C@H](CO)[C@@H](O)[C@@H]2O)c(O)c1`: the activity change, negative = inhibition was 7.13% in assay [1]; 4.57% in assay [2]; 9.27% in assay [3]; -5.63% in assay [4]; 0.292% in assay [5].

`CCCn1c(=O)c2cc(Cl)ccc2n2c(SCc3ccccc3F)nnc12`: the activity change, negative = inhibition in assay [1] is -18.7%; in assay [2], 1.82%; in assay [3] it was 7.95%; in assay [4] it was -7.13%; in assay [5] it was 4.39%.

With `O=C(NCc1ccc(Cl)cc1)c1ccc2cc[nH]c2n1`, the activity change, negative = inhibition is -13.6% in assay [1]; -9.73% in assay [2]; -5.43% in assay [3]; -19.4% in assay [4]; -22.5% in assay [5].

`O=C(O)C1CN(C(=O)c2ccco2)CCN(C2CCOCC2)C1` (configuration not stated): the activity change, negative = inhibition in assay [1] was -2.69%; in assay [2] it was -4.86%; in assay [3], -0.151%; in assay [4], -4.07%; in assay [5], -3.97%.

As to `Cn1cc(-c2[nH]c3cc(NC(=O)[C@H](N)C4CCCCC4)cc4c3c2C=NNC4=O)cn1`, the activity change, negative = inhibition is -2.07% in assay [1]; 12% in assay [2]; 2.69% in assay [3]; -9.88% in assay [4]; 3.74% in assay [5].

For `O=C(NCc1ccc2c(c1)OCO2)C1NCCc2[nH]cnc21` (configuration not stated), the activity change, negative = inhibition is 1.68% in assay [1]; 1.67% in assay [2]; -0.565% in assay [3]; -1.75% in assay [4]; 16% in assay [5].

`O=C(c1cccs1)N1CCN2CCS(=O)(=O)N(C3CC3)C(=O)C2C1` (configuration not stated): the activity change, negative = inhibition was -5.13% in assay [1]; -5.58% in assay [2]; -2.34% in assay [3]; -15.1% in assay [4]; -4.17% in assay [5].

On to `COc1cccc(CN2C(=O)c3nc4ccccc4n3CC2(C)C(=O)NC2CCCC2)c1` (configuration not stated), for which the activity change, negative = inhibition in assay [1] is 0.021%; in assay [2], 3.97%; in assay [3], 0.138%; in assay [4] it was -3.74%; in assay [5] it was -1.94%.

As to `CN1CCc2cc(Cl)c(O)cc2[C@@H](c2cccc3c2OCC3)C1`, the activity change, negative = inhibition in assay [1] is 2.74%; in assay [2], 6.91%; in assay [3], -5.27%; in assay [4], -12.7%; in assay [5], -1.25%.

`O=c1[nH]nc(OCCCc2ccc(Cl)cc2)c(NCc2cccnc2)c1Br`: the activity change, negative = inhibition is -8.5% in assay [1]; 1.89% in assay [2]; -10.9% in assay [3]; -42.5% in assay [4]; -5.64% in assay [5].

With `CC1(C)CNc2cc(NC(=O)c3cccnc3NCc3ccncc3)ccc21`, the activity change, negative = inhibition in assay [1] was -7.01%; in assay [2], -4.25%; in assay [3], -48.5%; in assay [4], -18.1%; in assay [5], -6.73%.

In the case of `CCCCS(=O)(=O)NC(Cc1ccc(OCCCCC2CCNCC2)cc1)C(=O)O` (configuration not stated), the figures for the activity change, negative = inhibition in assay [1] and in assay [3] were 3.14% and -5.15%, respectively.

For the compound `CCOC(=O)c1cccc(Nc2cc(C)nc3ccc(C)cc23)c1`, the activity change, negative = inhibition in assay [1] is -1.66%; in assay [2], 0%; in assay [3], -77.5%; in assay [4], -1.34%; in assay [5], -0.227%.

With `COc1ccc(C(=O)N2CCC(O)(CO)CC2)c(OC)c1OC`, the activity change, negative = inhibition in assay [1] is -2.46%; in assay [2], 1.02%; in assay [3], 0.818%; in assay [4], 2.27%; in assay [5], 1.79%.

Regarding `Cc1ccc(Cn2c(=O)c3ccccc3n3c(CCC(=O)NCCCN4CCOCC4)nnc23)cc1`, the activity change, negative = inhibition is -3.55% in assay [1]; 0% in assay [2]; -3.46% in assay [3]; 7.63% in assay [4]; -7.03% in assay [5].

For the compound `Cc1noc(-c2ccncc2)c1C(=O)NCCCCc1ccccc1`, the activity change, negative = inhibition in assay [1] was -6.19%; in assay [2], -2.71%; in assay [3], 0.612%; in assay [4] it was -8.04%; in assay [5], -3.15%.

As for `C=Cc1ccc(Cn2nc3n(CCC)c(=O)c4ccc(C(=O)NC5CCCCC5)cc4n3c2=O)cc1`, the activity change, negative = inhibition in assay [1] is 1.73%; in assay [2], 0%; in assay [3], 7.71%; in assay [4], -1.54%; in assay [5] it was -7.29%.

With `CN(CC(=O)N1CCN(Cc2ccccc2)CC1)S(=O)(=O)c1ccc2[nH]c3c(c2c1)CCCC3`, the activity change, negative = inhibition in assay [1] is -1.71%; in assay [2], 0%; in assay [3] it was -0.766%; in assay [4], 0.698%; in assay [5], 1.75%.

For `Cn1c(=O)n(C)c2cc(S(=O)(=O)Nc3ccc(F)c(F)c3)ccc21`, the activity change, negative = inhibition in assay [1] was -4.54%; in assay [2], 4.33%; in assay [3], 3.38%; in assay [4], 1.96%; in assay [5], -3.24%.

With `CC1CCCC(NC(=O)C2(C)Cn3c(cc4occc43)C(=O)N2Cc2ccccc2)C1C` (configuration not stated), the activity change, negative = inhibition in assay [1] was 0.694%; in assay [2], 4.52%; in assay [3] it was -3.59%; in assay [4], -5.01%; in assay [5], -3.93%.

With `CCCn1c(=O)c2ccc(C(=O)NCC(C)C)cc2n2c(=O)[nH]nc12`, the activity change, negative = inhibition was -1.71% in assay [1]; 0% in assay [2]; 4.08% in assay [3]; -1.43% in assay [4]; -4.87% in assay [5].

For `O=C(NC1CCCCC1)N[C@H]1C[C@H]2C(=O)N3CCC[C@@H]3C(=O)N2C1`, the activity change, negative = inhibition was -3% in assay [1]; -4.93% in assay [2]; -1.88% in assay [3]; -3.37% in assay [4]; -0.599% in assay [5].

In the case of `COc1ccc2cc(OCC3(C(=O)O)CN(C(=O)c4ccc(F)cc4)C3)ccc2c1`, the activity change, negative = inhibition in assay [1] is -42.8%; in assay [2], -4.83%; in assay [3], 7.85%; in assay [4] it was -24%; in assay [5], -1.21%.

Take `O=C1Cc2c([nH]c3ccc(Br)cc23)-c2ncccc2N1`: the activity change, negative = inhibition in assay [1] is -8.59%; in assay [2], -15.5%; in assay [3] it was 1.5%; in assay [4], -24.8%; in assay [5], -61%.

Regarding `COCCN1C(=O)c2ccc(-c3ccco3)n2CC1(C)C(=O)NC1CCCCCCC1` (configuration not stated), the activity change, negative = inhibition is -12.6% in assay [1]; -1.64% in assay [2]; -5.57% in assay [3]; -17.9% in assay [4]; -8.75% in assay [5].
